± gives the standard deviation of the averaged measurements. Some of the results follow.

The assay concerns PfAP2-EXP AP2 domain (GST-tagged). Kind of assay: gcPBM binding intensity (ln(normalized median fluorescence intensity)); higher = stronger DNA binding. The procedure, abridged:
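Binding intensity is the highest Masliner-normalised natural-log median intensity over replicate spots in either probe orientation. To obtain it, GST-tagged P. falciparum DNA-binding domains made in E. coli were incubated for 1 h on an Agilent 4 × 180k array of primer-extended double-stranded 36-bp intergenic genomic probes plus negative controls. Detection used Alexa488 anti-GST antibody with scanning at 488 nm.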
In the case of “TTTATTTATATTTATACACACAAACATAATACTACT [CACACA_site7039]”, the “gcPBM binding intensity (ln)” value amounted to 8.51 ± 0.4.
The figure for “ATATATTTTTTAAACACACACATAAATATTTGTGTA [CACACA_site2879]” is 8.47 ± 0.35; for “ATATACTTACATATTACACACAATATTTTTAAATGT [CACACA_site3627]” it is 8.55 ± 0.32; for “AAGGGAATATACCTTACACACAAAAATGCAGATATA [CACACA_site1451]” it is 8.58 ± 0.45.
As for “TTTTTTTTGGTTTTCATGCACACAATTTATAAATCT [CACACA_site3107]”, the figure is 8.94 ± 0.36; as for “AAAGTAAAAAAAAAAACATGCACATATTTACTTTAT [TGCATGCA_site849]”, 9.07 ± 0.4.
The figure for “CTAATCAAAATAAATTAACACACAATTTTAATATTG [CACACA_site7887]” is 8.05 ± 0.48; for “ATTCTATACATATATATACACACGTAGTTTCTATTT [CACACA_site2223]” it is 8.61 ± 0.37.
Turning to “AAAAAAAAAAAGAAGGAAACATTTGACCAAAAATAT [GTGCAC_negctrl_site404]”, the “gcPBM binding intensity (ln)” value was determined as 8.73 ± 0.58.
As for “GTTAATATACTTAATACACACACGAATATATATAAA [CACACA_site1181]”, the figure is 8.69 ± 0.35; as for “TAACATTATATATATTGTACATAGTAAATATTATAT [XGTACX_site5421]”, 8.23 ± 0.47.
Take “TGTAATCTGGAGAAAAGTACACAGTATCTGGTAGCT [XGTACX_site2039]”: the “gcPBM binding intensity (ln)” value was 8.53 ± 0.34.
As for “ATTTAAATTATAAAATGTACATTTAACAAATTTTAT [XGTACX_site770]”, the figure is 8.34 ± 0.4; as for TTTAATTATTAAATGGTGCACTTGAAATATAAAAAT, 9.63 ± 0.73.
As for “CTTTTAATGGTGTAAAGTACTTTCTTAAGGTTCAAA [XGTACX_site8423]”, the “gcPBM binding intensity (ln)” value came to 8.55 ± 0.33.
With “AAGTTATATAAAGGAACACACATTTGATTTTATTTT [CACACA_site6814]”, the “gcPBM binding intensity (ln)” value turned out to be 8.34 ± 0.47.
As for “ATATATGGGGCGCAGGAAAAGAGTTTTGGAAATAAA [CACACA_negctrl_site1265]”, the figure is 9.08 ± 0.49; as for “TATACAACGTTAAGCACACACAAAAAAAATTTAATA [CACACA_site3086]”, 8.7 ± 0.49; as for “ATAAAACATAAAAATCGTACAAAGGAGGATATAAGG [XGTACX_site420]”, 9.14 ± 0.56.
As for “AAAATGATGTTAATTACACACATCATCTCATAAACA [CACACA_site3017]”, the figure is 8.28 ± 0.4; as for “TGGAGGTCAGTTCACAGTACCCAGAAAACTCTACGA [XGTACX_site2561]”, 8.44 ± 0.61.
As for “ATTATTTATTATTTCTGTACGTATAAAAATAACATT [XGTACX_site1671]”, the figure is 8.71 ± 0.38.
For “TAAATATCAAGACACACACACAAAAGTGAATAAATA [CACACA_site7723]”, the “gcPBM binding intensity (ln)” value is 8.78 ± 0.33.
The figure for “AGAGAAAAAAAAAATTGTACGTATGTAATAATATGC [XGTACX_site2981]” is 8.96 ± 0.44; for “AGATATTATTTATATATTTATATATATATATAGATA [TGCATGCA_negctrl_site77]” it is 7.96 ± 0.23.
The figure for “TTCTTTTTAAATTACACACACATATATATATGTATA [CACACA_site3515]” is 8.66 ± 0.28; for “AAAGTAAAAGAAAGCACACACACATGGATTTATGTA [CACACA_site5997]” it is 8.53 ± 0.49.
Consider “TATATATATGTATGTGGTACTTATATTATATACATA [XGTACX_site4550]”, for which the “gcPBM binding intensity (ln)” value came to 8.41 ± 0.19.
As for “TATTTACACCCATGCGCACACATAAATAAATAATAG [CACACA_site5350]”, the figure is 8.82 ± 0.28; as for “ACAGAAAATAAAATTTGTACATATATAGAATAAAGA [XGTACX_site3014]”, 8.76 ± 0.4; as for “ATACATATGGTGGATCGTACATATATATAATATGTA [XGTACX_site8631]”, 8.71 ± 0.33.
As for CCATGTAGTGAATAGGTGCATATCAAAAAAAAAAAA, the figure is 8.67 ± 0.3; as for “TTATACACAAAAAAAAAAATATATATATATATATAT [XGTACX_negctrl_site5]”, 10.2 ± 0.61; as for “TGTTGTATTGAAGCTAAAAAATGAGGCAAAAAAAAA [CACACA_negctrl_site1189]”, 8.7 ± 0.49.
As for “ACTTCAAAAAAAAAAAAATATATATATATATATTAT [GTGCAC_negctrl_site158]”, the figure is 8.21 ± 0.38.
With “TTTATATAATATAAATTTTTTTTGCAGTAATAAAAA [TGCATGCA_negctrl_site570]”, the “gcPBM binding intensity (ln)” value amounted to 8.25 ± 0.24.
With “ATTTATGAGTAATACACACACTTGTGGATATATTAC [CACACA_site7735]”, the “gcPBM binding intensity (ln)” value amounted to 8.4 ± 0.28.
As for “AAAAAAAAAAAATATTGTAGAATATGATGACTTTGT [GTGCAC_negctrl_site554]”, the figure is 8.37 ± 0.51; as for “TTTTAAATATGCCATACACACTACTATATAATAAAT [CACACA_site5119]”, 8.58 ± 0.34; as for “ATTTTATTTTCATATGAACACACATATATATATTAT [CACACA_site8741]”, 9.15 ± 0.47.
As for “CTGCGTTTAATATGCGTGCACCTTGGTTTTATATCT [GTGCAC_site9525]”, the figure is 9.16 ± 0.19; as for “AACAACCAAAGGCACACACACAAAAAAAAAAATATA [CACACA_site399]”, 8.4 ± 0.63; as for “AAATTTCATGGGTATTGTACATAATTTTATTATATA [XGTACX_site4988]”, 8.48 ± 0.37.
The figure for “TGATAAGGATGTGAATTACTCAAAGGAAGTAATCAT [CACACA_negctrl_site1432]” is 8.38 ± 0.47.

The record behind these values is the supplement of paper PMC11417369.
